Results as given in PubChem BioAssay AID588342 (National Center for Advancing Translational Sciences (NCATS), 2011).
The campaign covered roughly 360,000 compounds. About 25,000 (6.9%) were called active. The shares of active, inactive and inconclusive entries below differ from those in the screen. The call rests on the fitted dose curve; in most records, active means well fitted inhibition curve with a large enough effect; inconclusive means small, poorly fitted or top-dose-only effect; inactive means flat fitted curve, though single readings scatter. Where the call is inconclusive, the potency comes from a doubtful curve fit.

Biological target: Luciferin 4-monooxygenase (Photinus pyralis) (UniProt P08659)
Sequence of UniProt P08659 (P08659 whole entry, looked up): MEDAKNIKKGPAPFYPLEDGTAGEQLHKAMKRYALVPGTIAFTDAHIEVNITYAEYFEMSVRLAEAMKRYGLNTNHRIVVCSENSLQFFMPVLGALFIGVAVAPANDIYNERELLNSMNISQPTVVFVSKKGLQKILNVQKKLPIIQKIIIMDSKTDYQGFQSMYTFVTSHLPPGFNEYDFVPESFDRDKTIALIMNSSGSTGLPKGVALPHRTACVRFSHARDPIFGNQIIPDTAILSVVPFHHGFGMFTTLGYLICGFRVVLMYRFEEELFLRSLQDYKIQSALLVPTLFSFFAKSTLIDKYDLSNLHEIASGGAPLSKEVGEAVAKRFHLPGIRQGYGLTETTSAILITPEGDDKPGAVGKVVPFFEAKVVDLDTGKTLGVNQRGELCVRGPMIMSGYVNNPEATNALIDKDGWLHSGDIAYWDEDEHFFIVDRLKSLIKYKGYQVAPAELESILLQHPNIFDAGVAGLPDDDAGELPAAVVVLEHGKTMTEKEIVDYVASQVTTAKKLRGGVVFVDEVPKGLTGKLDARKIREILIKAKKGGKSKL
Assay: qHTS profiling assay for firefly luciferase inhibitor/activator using purifed enzyme and Km concentrations of substrates (counterscreen for miR-21 project); further: nearly all actives have a fitted effect of over 55% in size
Settings: purified FLuc, luminescence inhibition; series mostly up to 57.5 µM
How it was run: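 Purified P. pyralis luciferase (10nM final) with 10uM D-luciferin and 10uM ATP (Km levels) in 50mM Tris acetate pH 7.5, 10mM Mg acetate, 0.01% Tween-20, 0.05% BSA; qHTS 6-point titration, ~60 µM downward; luminescence read.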
Potency means the concentration at half of the fitted maximal effect; tags describe the fitted curve by direction and shape.

SMILES	Potency
CSc1ccc(/C=C/C(=O)NC23CC4CC(CC(C4)C2)C3)cc1	active: 13.5 µM
COc1ccccc1C(=O)Nc1nsc(-c2ccccc2)n1	active: 4.26 µM
CC1=NN(c2nc(-c3ccc(C)cc3)cs2)C(=O)C1N=Nc1ccc(C(N)=O)cc1 (configuration not stated)	inconclusive: 23.9 µM [inhibitor, partial curve]
CC(=O)NCCC(=O)N1CCCC(CNC(=O)c2ccc(-c3ccccc3)cc2)C1 (configuration not stated)	active: 15.1 µM
CCCCN(C)C(=O)c1cc2cc3ccc(OC)cc3nc2o1	active: 3.79 µM
N#Cc1nc(-c2cccc3ccccc23)oc1N1CCCCC1	inconclusive: 3.38 µM [inhibitor, full curve, poor fit]
CC(=O)c1ccc(NC(=O)C(C)OC(=O)c2ccc3c(c2)nc(C)n3-c2ccccc2)cc1 (configuration not stated)	inconclusive: 23.9 µM [inhibitor, single point]
O=C(/C=C/c1ccco1)Nc1ccc(C(=O)N2CCOCC2)cc1	inconclusive: 26.9 µM [inhibitor, single point]
Cc1cccc(NC(=O)c2ccc(COc3ccc4ccccc4c3)o2)n1	inconclusive: 15.1 µM [inhibitor, partial curve, poor fit]
COc1cc(/C=C/C(=O)NC(=O)c2ccccc2O)ccc1O	inactive
CC(=O)Oc1cccc(Nc2ncnc3ccccc23)c1	inconclusive: 19 µM [inhibitor, single point]
Cn1c(SCC(=O)Nc2ccc3c(c2)OCCO3)nnc1C1CC1	inconclusive: 19 µM [inhibitor, partial curve, poor fit]
N#CC1=C2SCN(c3ccccc3)CN2C(=O)CC1c1ccccc1Cl (configuration not stated)	inconclusive: 10.7 µM [inhibitor, partial curve]
COc1ccccc1/C=C1\Oc2cc(OC(=O)N3CCOCC3)ccc2C1=O	active: 10.7 µM
Cc1ccc(C)c(C(=O)CN2Cc3ccccc3C2=O)c1	inconclusive: 37.9 µM [inhibitor, single point]
O=C1/C(=C/c2cccs2)SC(=S)N1N1CCOCC1	inconclusive: 23.9 µM [inhibitor, single point]
COc1ccc(-n2cc(CNCc3cccnc3)c(-c3cccc(F)c3)n2)cc1	active: 9.53 µM
O=[N+]([O-])c1cc(Br)cc(/C=N/n2cnnc2)c1O	inconclusive: 37.9 µM [inhibitor, partial curve, poor fit]
CC(C)C(NC(=O)c1ccc(F)cc1)C(=O)Nc1cccnc1 (configuration not stated)	inactive
Oc1ccc(/C=N/Nc2cccc3cccnc23)c(O)c1	active: 4.78 µM
CCCC(=O)Nc1ccc(Cc2ccc(NC(=O)CCC)c(C(=O)O)c2)cc1C(=O)O	inconclusive: 10.7 µM [inhibitor, partial curve, poor fit]
CCOc1ccc(/C=N/NC(=O)CC(=O)NCc2ccccc2)cc1	inconclusive: 37.9 µM [inhibitor, partial curve, poor fit]
O=C(CCSc1nnc(-c2ccc(O)cc2)o1)N1CCOCC1	inconclusive: 37.9 µM [inhibitor, partial curve, poor fit]
CCCCNC(=O)N1CCC(CCC(=O)N(C)Cc2ccccc2)CC1	inactive

SMILES	Potency
COc1cc(/C=C2/SC(=S)N(Cc3ccccc3)C2=O)ccc1O	active: 26.9 µM
CCOC(=O)COc1ccccc1/C=C\[N+](=O)[O-]	inconclusive: 10.7 µM [inhibitor, partial curve, poor fit]
COc1ccc(NC(=O)c2onc(C)c2Cl)cc1OC	inconclusive: 26.9 µM [inhibitor, partial curve, poor fit]
COc1ccc(N(CC(=O)Nc2ccccc2C(N)=O)S(=O)(=O)c2ccc(C)c([N+](=O)[O-])c2)cc1	inconclusive: 37.9 µM [inhibitor, partial curve, poor fit]
COc1cccc2cc(C(=O)Nc3ccccc3C)/c(=N/O)oc12	active: 6.75 µM
COc1cc(C)ccc1OCc1cc(C(=O)N2CCN(C3CCCCC3)CC2)no1	active: 16.9 µM
COc1ccccc1C(=O)Nc1ccc(Br)cc1C	active: 16.9 µM
O=C(NCc1ccccc1F)c1ccc2c(c1)OCO2	inconclusive: 33.8 µM [inhibitor, partial curve, poor fit]
COCCOC(=O)c1[nH]c2c(c1C)C(=O)CC(c1ccc(N(C)C)cc1)C2 (configuration not stated)	inconclusive: 23.9 µM [inhibitor, partial curve, poor fit]
OCCN1CCN(c2ncnc3c2cnn3-c2cccc(Cl)c2)CC1	inconclusive: 23.9 µM [inhibitor, single point]
Cc1ccc2c(CC(=O)Nc3nnc(C(C)C)s3)coc2c1C	inactive
COC(=O)C1=C(C)NC(=O)/C1=C\c1cccs1	inconclusive: 23.9 µM [inhibitor, single point]
CCCCNC(=S)Nc1ccc([N+](=O)[O-])cc1	inconclusive: 26.9 µM [inhibitor, single point]
CN(C)c1ccc(/C=C2\CCCc3c2nc2ccccc2c3C(=O)O)cc1	active: 4.26 µM
COc1ccccc1CNC(=O)[C@H](C)NC(=O)C1CCN(C(=O)[C@@H](N)C(C)C)CC1	inactive
CCN(CCCNC(=O)CNC(=O)c1nn(-c2ccc(OC)c(OC)c2)c(=O)c2ccccc12)c1ccccc1	inactive
O=C(Nc1ccc(Cl)cc1)N1CCCC1	inconclusive: 21.3 µM [inhibitor, partial curve, poor fit]
Cc1cc(C(=O)COc2ccccc2C(N)=O)c(C)n1CC1CCCO1 (configuration not stated)	inconclusive: 37.9 µM [inhibitor, single point]
Cn1c(CNC(=O)CSc2nc(-c3ccccc3F)nc3cc(=O)[nH]n23)nc2ccccc21	inactive
CC(C)c1ccc(-c2noc(SCC(=O)N3CCN(c4ccccc4F)CC3)n2)cc1	active: 2.39 µM
O=C1/C(=C/N(C(=O)c2ccco2)c2ccc(Br)cc2)Sc2ccccc21	active: 0.338 µM
COc1ccc(/C=N/n2cnnc2SCCO)cc1OC	inconclusive: 37.9 µM [inhibitor, single point]
CCOC(=O)c1sc(=NC(=O)c2cccs2)n(C)c1C	active: 1.35 µM
Cc1cc(C)cc(C(=O)NC2C(=O)N3C(C(=O)O)=C(CSc4nnc(C)s4)CSC23)c1 (configuration not stated)	inconclusive: 23.9 µM [inhibitor, partial curve, poor fit]

SMILES	Potency
CN1CCN(S(=O)(=O)c2ccc(NC(=S)NC(=O)c3ccc(Cl)cc3)cc2)CC1	inconclusive: 16.9 µM [inhibitor, partial curve, poor fit]
CCOc1cccc(-c2nn3c(-c4ccco4)nnc3s2)c1	inconclusive: 33.8 µM [inhibitor, partial curve, poor fit]
CCOc1ccc(NC(=O)CN(c2ccc(OC)cc2)S(C)(=O)=O)cc1	active: 21.3 µM
Cc1sc(NC(=O)c2ccccc2)c(C#N)c1-c1ccccc1	active: 2.39 µM
CCCCN(C)C(=O)CN1C(=O)c2cccnc2Oc2ccc(Cl)cc21	inactive
CCCCNC(=O)c1onc(CSc2cc(C)ccc2C)c1C(=O)O	inconclusive: 16.9 µM [inhibitor, partial curve, poor fit]
O=C(NNC(=S)NC(=O)c1ccccc1[N+](=O)[O-])c1ccccc1O	inconclusive: 23.9 µM [inhibitor, single point]
Cc1cc(C(=O)NNS(=O)(=O)c2cc(C(=O)O)ccc2Cl)c(C)n1-c1ccccc1	active: 23.9 µM
Cc1ccc(CSc2nnc(SCC(=O)N/N=C/c3c[nH]c4ccccc34)s2)cc1	inconclusive: 16.9 µM [inhibitor, partial curve, poor fit]
COc1cc(C(=O)Nc2cc(C)c(O)c(-c3nc4cc(Cl)ccc4o3)c2)cc(OC)c1OC	inactive
Cc1cc(C)c(OCC(=O)Nc2cc(C(=O)O)cc(C(=O)O)c2)cc1C	inconclusive: 37.9 µM [inhibitor, partial curve, poor fit]
CC(=O)Nc1cccc(-c2csc(Nc3ccccn3)n2)c1	active: 1.51 µM
CCOc1ccccc1CNC(=O)c1nc(-c2ccc(Cl)cc2)n2c1CCCCC2	inactive
CCN(CC)c1nc2c(S(=O)(=O)c3ccccc3)nnn2c2ccc(Cl)cc12	inactive
Cc1ccc(C(=O)O/N=C2\CCSc3ccc(C)cc32)cc1	active: 7.57 µM
COc1cccc(CNc2ccc(F)c([N+](=O)[O-])c2)c1O	inconclusive: 21.3 µM [inhibitor, partial curve, poor fit]
Cc1ccc(-c2cc(C(=O)O)n[nH]2)s1	inconclusive: 21.3 µM [inhibitor, partial curve, poor fit]
COc1ccc(NC(=O)Nc2ccc3c(c2)N(C)C(=O)CS3)cc1Cl	active: 16.9 µM
O=C(OCc1cc(=O)n2ccsc2n1)c1ccc(O)cc1O	inconclusive: 37.9 µM [inhibitor, partial curve, poor fit]
O=C(Nc1ccncc1)c1ccc(N2CCCC2=O)cc1	inconclusive: 26.9 µM [inhibitor, single point]
O=C(Nc1nc2ccccc2c(=O)s1)c1ccco1	active: 15.1 µM
CCN(C(=O)c1cc2c(=O)oc3ccccc3c2s1)c1ccc(C)c(C)c1	inactive
Cc1ccc(N2CC(C(=O)OCC(=O)c3ccc(C)c([N+](=O)[O-])c3)CC2=O)cc1 (configuration not stated)	inactive
O=C(O)c1cccc(Cn2c(Cl)c(/C=N/NC(=O)c3cccc(O)c3)sc2=O)c1	inconclusive: 37.9 µM [inhibitor, partial curve, poor fit]
